Assay results: the supplement of paper PMC10126150
Sequences with one replicate were seen in a single cluster, so their values are uncertain.

The sequences below were run on ATP (assay: switch fluorescence ratio, 500 uM ATP over buffer (Cy3 cluster intensity, sum of 5 cycles each) (fold (ratio)); higher = stronger signal-on switching upon ATP binding; sequences stand for … in TCGTCGGCAGCGTCAGATGTGTATAAGAGACAGTTTTTTTTTTTTTTTTTTTTTTTTT…TC). Conditions: aptamer strand: ATP DNA aptamer (quencher-CACCTGGGGGAGTATTGCGGAGGAAGG + anchor), 100 nM annealed; ATP concentration: 500 uM; one replicate.
Method in brief: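 Cy3-labelled switching-strand clusters on a modified Illumina MiSeq flow-cell were annealed to 100 nM quencher-labelled ATP aptamer and imaged first in selection buffer, then after 15 min with 500 uM ATP at 22 °C. NaOH stripping and re-annealing separated each of five buffer/ATP cycles, and clusters outside 100-1000 RFU were excluded. The fluorescence ratio sums target-cycle Cy3 intensity over buffer-cycle Cy3 intensity per cluster and averages it per switch-domain sequence.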
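Further: ATP exposure 15 min at 22 °C before imaging.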

Row | Sequence | switch fluorescence ratio
1 | GATAGAGAAG | 1
2 | GATAGCGTAT | 0.983
3 | GATAGCTGCG | 1.04
4 | GATAGGTCG | 1.02
5 | GATAGTACGT | 1.03
6 | GATAGTCCAT | 1.03
7 | GATAGTGGAG | 1.01
8 | GATAGTTATC | 0.98
9 | GATATAAAAC | 1.06
10 | GATATCCGCG | 1.31
11 | GATATCCTAA | 1.03
12 | GATATCGGCG | 1.02
13 | GATATCGTTG | 1.02
14 | GATATCTG | 0.897
15 | GATATGGCCA | 1.03
16 | GATATTAATG | 0.986
17 | GATATTACT | 1.03
18 | GATCAATGGC | 0.936
19 | GATCACACTC | 1
20 | GATCACCCGC | 1.09
21 | GATCACCCGT | 1.03
22 | GATCACGGTG | 1.02
23 | GATCATAAGA | 1.05
24 | GATCATATGT | 1
25 | GATCATCCCT | 1.05

Row | Sequence | switch fluorescence ratio
26 | GATCCAATTA | 0.949
27 | GATCCACTAG | 0.991
28 | GATCCCATCG | 0.995
29 | GATCCCCGCC | 1.54
30 | GATCCGACTG | 1.02
31 | GATCCGGGAT | 0.985
32 | GATCCTGACT | 1.27
33 | GATCGATTTT | 0.972
34 | GATCGCAGGT | 1.08
35 | GATCGCGATT | 1.03
36 | GATCGGAATT | 1.05
37 | GATCGGGTGG | 1.01
38 | GATCGTCCGA | 1.04
39 | GATCGTCGGC | 1.05
40 | GATCTCTCAA | 1.03
41 | GATCTGGACC | 1.03
42 | GATCTGGTTG | 1
43 | GATCTTTATG | 0.956
44 | GATGACGCAT | 1.88
45 | GATGAGACAC | 0.938
46 | GATGATCTGG | 0.994
47 | GATGCAATTG | 1.38
48 | GATGCAGGAG | 1.07
49 | GATGCATCTG | 0.953
50 | GATGCCGGGC | 0.969

Row | Sequence | switch fluorescence ratio
51 | GATGCGAAAG | 0.967
52 | GATGCTAGAG | 1.03
53 | GATGCTGG | 1
54 | GATGCTTCCG | 1.02
55 | GATGGAATCC | 1.05
56 | GATGGAGCTC | 1.05
57 | GATGGAGTA | 1.09
58 | GATGGAGTAG | 1.04
59 | GATGGATGGC | 1.03
60 | GATGGATGTC | 0.976
61 | GATGGATTAC | 1.33
62 | GATGGGATGA | 0.986
63 | GATGGGCCTG | 0.975
64 | GATGGGGCTT | 1.05
65 | GATGGGGGC | 0.949
66 | GATGGTAGCG | 0.934
67 | GATGGTCGC | 1.08
68 | GATGGTGACG | 0.949
69 | GATGTAAAGA | 0.968
70 | GATGTAAATA | 1.02
71 | GATGTAATCG | 1.03
72 | GATGTACGCT | 1.07
73 | GATGTACGGC | 1.12
74 | GATGTCACAG | 0.983
75 | GATGTCGCCG | 0.965

Row | Sequence | switch fluorescence ratio
76 | GATGTGGATC | 1.05
77 | GATGTGGGCT | 0.988
78 | GATGTGTAGC | 1.04
79 | GATGTGTGCT | 0.956
80 | GATGTGTGTC | 0.981
81 | GATGTTACTT | 1.01
82 | GATGTTAGTT | 0.983
83 | GATGTTCGGG | 1.02
84 | GATGTTGCGC | 0.992
85 | GATGTTGGTT | 1.02
86 | GATGTTGTAG | 1
87 | GATGTTTAGG | 0.967
88 | GATTAACGTC | 1.05
89 | GATTACAAAT | 1.01
90 | GATTACGTT | 1.03
91 | GATTACTTCG | 0.979
92 | GATTAGCCTG | 1.06
93 | GATTAGCGGG | 1.01
94 | GATTATAAAG | 1.04
95 | GATTATCAGT | 1.03
96 | GATTATCTGC | 1.02
97 | GATTATGAG | 1
98 | GATTATGATA | 0.985
99 | GATTATGGAC | 1.03
100 | GATTATTACA | 1.06

Row | Sequence | switch fluorescence ratio
101 | GATTCAAATG | 0.987
102 | GATTCACTGC | 0.987
103 | GATTCCGAT | 1.02
104 | GATTCCTAAT | 1.02
105 | GATTCGCTTC | 1.01
106 | GATTCTCTCT | 1.03
107 | GATTCTGAGG | 0.984
108 | GATTGAACT | 0.994
109 | GATTGACCCG | 0.996
110 | GATTGAGATC | 1
111 | GATTGAGTAA | 1.04
112 | GATTGATGGC | 1.01
113 | GATTGCATTT | 0.985
114 | GATTGGAGTT | 1.02
115 | GATTGTCGTA | 0.967
116 | GATTGTGATA | 1.01
117 | GATTGTGGCG | 0.921
118 | GATTGTGGTT | 0.991
119 | GATTGTTTGA | 1.02
120 | GATTTAAACC | 1.04
121 | GATTTAAGAC | 1
122 | GATTTAAGGA | 1.03
123 | GATTTAGAGA | 1.01
124 | GATTTAGTGG | 1
125 | GATTTAGTGT | 0.984

Row | Sequence | switch fluorescence ratio
126 | GATTTGTTAT | 1
127 | GCAAAAACCC | 1.03
128 | GCAAAAAGA | 1.5
129 | GCAAACTTCG | 1.09
130 | GCAAATTAGG | 1.04
131 | GCAACAATTG | 0.979
132 | GCAACACCAG | 1.25
133 | GCAACCGAAA | 2.06
134 | GCAACGCACA | 1.18
135 | GCAACGGTGG | 0.992
136 | GCAACGTATA | 1.08
137 | GCAACTAAGC | 0.943
138 | GCAACTGATG | 0.98
139 | GCAACTTATA | 1.07
140 | GCAAGAAGGA | 1.02
141 | GCAAGCAGGG | 1.03
142 | GCAAGGGTCA | 1.07
143 | GCAAGGGTCT | 1.03
144 | GCAATCATGT | 1.04
145 | GCAATCCTTA | 1.12
146 | GCAATGCATT | 1
147 | GCAATGCGGA | 3.4
148 | GCAATGGAGG | 1.05
149 | GCAATTATGA | 1.11
150 | GCAATTTGT | 1.03

Row | Sequence | switch fluorescence ratio
151 | GCACAAGATT | 0.988
152 | GCACAGAAGA | 0.987
153 | GCACAGGGAG | 1.11
154 | GCACCAGGGC | 1.2
155 | GCACCCCCAG | 5.24
156 | GCACCGCAGG | 1.03
157 | GCACCGCGCG | 1.05
158 | GCACCTGGGG | 1.01
159 | GCACGAAAGG | 1.03
160 | GCACGATATT | 1.09
161 | GCACGCCACA | 1.52
162 | GCACGCGTAA | 1.01
163 | GCACGGACCG | 1.01
164 | GCACGGCTAA | 1.02
165 | GCACGGGGTA | 1.34
166 | GCACGGGTAC | 1.06
167 | GCACGTCTTG | 1.15
168 | GCACTATTAG | 0.99
169 | GCACTGAGCT | 1.05
170 | GCACTTGAGC | 1.06
171 | GCAGAACCGT | 1.05
172 | GCAGACCCAT | 1.01
173 | GCAGAGGGGC | 0.973
174 | GCAGAGTACG | 0.991
175 | GCAGATCGCG | 1.01

Row | Sequence | switch fluorescence ratio
176 | GCAGCACCCC | 2.42
177 | GCAGCACGAA | 1.26
178 | GCAGCACTTA | 1.19
179 | GCAGCAGAGG | 1.29
180 | GCAGCAGTTT | 1.04
181 | GCAGCATTGT | 1.15
182 | GCAGCGACCG | 1.15
183 | GCAGCGATTT | 1.21
184 | GCAGCGGTCG | 1.08
185 | GCAGGAAGAT | 1
186 | GCAGGAATAG | 2.06
187 | GCAGGAGTCT | 1.06
188 | GCAGGATGTG | 0.965
189 | GCAGGCAACA | 1
190 | GCAGGCAATC | 2.64
191 | GCAGGCCATT | 1.19
192 | GCAGGCCTGC | 1.07
193 | GCAGGCTAGG | 0.977
194 | GCAGGGAGCT | 0.983
195 | GCAGGGCCGT | 0.976
196 | GCAGGGGCCT | 0.997
197 | GCAGGGTGCC | 0.994
198 | GCAGGTAATG | 0.974
199 | GCAGTCAGCT | 1
200 | GCAGTCCAGC | 1.01
